Laboratory results published in the supplement of paper PMC3334620.
Over roughly 33,000 sequences, “E-score (-0.5 to 0.5)” has its median near -0.013; the highest 2% begin near 0.3. The list shows a part of the results.

Each sequence was assayed against T1, Msn1 (UniProt P22148) (assay: PBM E-score (8-mer binding enrichment) (E-score (-0.5 to 0.5)); higher = stronger / more preferred TF binding; most listed sequences are background and not binding sites). Conditions: protein concentration: 200 nM; construct: GST-full length.
T1 sequence: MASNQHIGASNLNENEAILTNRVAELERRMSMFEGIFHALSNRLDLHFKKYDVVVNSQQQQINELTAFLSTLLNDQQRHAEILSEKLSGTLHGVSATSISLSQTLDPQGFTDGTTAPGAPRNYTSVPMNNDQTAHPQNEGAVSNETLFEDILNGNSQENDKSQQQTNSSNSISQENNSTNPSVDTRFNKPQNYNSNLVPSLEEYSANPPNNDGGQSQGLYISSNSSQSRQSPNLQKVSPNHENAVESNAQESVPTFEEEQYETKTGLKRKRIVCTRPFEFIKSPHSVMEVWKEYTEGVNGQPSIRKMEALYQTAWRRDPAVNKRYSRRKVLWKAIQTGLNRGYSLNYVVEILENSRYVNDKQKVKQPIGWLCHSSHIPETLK
Outline: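 For each ungapped eight-base word taken together with its reverse complement, the Universal PBM Analysis Suite assigned an E-score. Binding data came from GST-tagged yeast transcription factors, applied at about 100-200 nM, on universal all-10-mer Agilent arrays made double-stranded by primer extension. Fluorescent anti-GST marked bound protein, and scans were normalised with masliner.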

Row | Sequence | PBM E-score
1 | TGTCGGAA | 0.216
2 | GATCGCCA | -0.138
3 | CATCCATG | -0.0533
4 | GACCGGAA | 0.0448
5 | CCGAACGA | 0.179
6 | GGGAAACA | -0.0369
7 | AATGTATG | 0.121
8 | ATTTTTTA | 0.21
9 | AGCCCGCG | -0.185
10 | ACGGAGAG | -0.251
11 | TACTAAAA | 0.196
12 | TCCTCACA | 0.0216
13 | ACCCGTCT | -0.0761
14 | AAATGTCA | 0.456
15 | GAGAGTGA | -0.0411
16 | CGGAATAC | 0.206
17 | AGGTCTCA | 0.161
18 | ATCGTACA | 0.0581
19 | CATCCTAG | -0.132
20 | AGGAAGAG | -0.0758
21 | ACACTCTA | -0.0709
22 | CTTCGACA | 0.0726
23 | ACTAGTAG | 0.0879
24 | AGAACGAT | 0.114
25 | ATGCGCAC | -0.00069

Row | Sequence | PBM E-score
26 | CACTCTTA | -0.0192
27 | GACACCTC | 0.0624
28 | CTTGAAAC | 0.116
29 | GCCCGGGC | -0.0372
30 | GCGTGTCA | 0.136
31 | ACTCCAGA | -0.141
32 | GGGTGGTA | -0.173
33 | CGTTGAAC | -0.0315
34 | AGCGATAA | -0.0628
35 | CGTAACAC | -0.014
36 | ACAGGCCT | -0.0369
37 | AGCTTCCA | -0.0343
38 | CTTAGAGC | 0.0886
39 | ACAGAGGT | -0.112
40 | CCAACTTC | -0.0726
41 | GACCAGTA | -0.136
42 | GTGAATTA | 0.0971
43 | ACCCCCAG | -0.243
44 | CTCTGTAA | -0.151
45 | GCTTCCGA | 0.0704
46 | ATATGGTG | 0.0957
47 | ATCTGCCG | 0.0828
48 | ACAATTTC | 0.279
49 | CCATCCAA | -0.0179
50 | CATTCGGA | 0.276

Row | Sequence | PBM E-score
51 | CGGGGTAA | 0.0107
52 | CAAGTAAA | 0.1
53 | CGTTGTTC | 0.0573
54 | CGTGCTAC | -0.245
55 | ACCTGGTC | -0.0253
56 | CTGGTAGA | -0.0853
57 | GACCACGC | 0.0106
58 | CCACACGC | -0.207
59 | TCTCGCCA | -0.0723
60 | AATTTAAA | 0.147
61 | AGGTAATG | -0.0384
62 | GCTTGGAA | -0.00891
63 | ACACTTCG | 0.155
64 | GGACCTAC | -0.0262
65 | CACAGAGG | -0.122
66 | CCTGGCCG | -0.0438
67 | AAATTTCT | -0.0628
68 | CCTATGCA | -0.112
69 | CTCGTGAC | 0.00678
70 | ACGACCAA | 0.12
71 | CACCTACC | -0.0956
72 | CAGAAAAA | 0.0903
73 | CATTCTAG | -0.0107
74 | GGGCTAAA | -0.0212
75 | ATCTCGAG | 0.0342

Row | Sequence | PBM E-score
76 | AGCGGGGA | -0.124
77 | CGGGTTTA | 0.107
78 | ACACCGCT | -0.0771
79 | CCTACGCG | -0.0384
80 | AGTGCTCG | -0.00373
81 | GCTAGGAA | -0.177
82 | CCAACAGA | 0.0204
83 | AGAGGCAA | -0.0984
84 | ACCTTCTA | 0.0596
85 | GCCCCATA | -0.259
86 | GGAGGCCA | -0.26
87 | GAGCAATC | 0.0308
88 | ACACGTAC | 0.22
89 | CAACGGTC | -0.024
90 | AGAGGCGA | -0.15
91 | CATGGGCA | -0.05
92 | GTGCAGCA | -0.256
93 | AATTCACG | -0.0818
94 | CCCGTGGC | -0.304
95 | AATCCAAA | 0.0673
96 | GCCACCTA | -0.218
97 | TAGGACAA | 0.491
98 | GCAAGTGA | 0.12
99 | AGGTTACA | -0.14
100 | GCTGTTCA | -0.00393

Row | Sequence | PBM E-score
101 | ACAGAATA | 0.0903
102 | GAATACAC | 0.018
103 | GTCTATCA | 0.156
104 | CCGGGGAC | -0.113
105 | ACATGATA | 0.234
106 | ACAGGAAA | 0.137
107 | ACCTCGAA | 0.0707
108 | ATTAGCCA | 0.0736
109 | ACATTACC | 0.0974
110 | ATTTAAGA | 0.0224
111 | ACGTAGCC | -0.252
112 | CCCCTCAA | -0.341
113 | AAGGTGTG | 0.00988
114 | GGGCTTAC | -0.234
115 | ACAGGGCT | -0.194
116 | CTACGTCC | 0.107
117 | GTACCCCA | -0.138
118 | CCCTATCA | -0.16
119 | ACAATTGT | 0.363
120 | ACCTATGA | -0.172
121 | AGTAACCA | -0.104
122 | AACCACTC | -0.123
123 | AAGCATCT | -0.0811
124 | CGAGCGAC | 0.0386
125 | AACTAACA | 0.184

Row | Sequence | PBM E-score
126 | GTCAGTAA | 0.0578
127 | AATATCCG | 0.256
128 | ACCGGAAG | 0.139
129 | AGAGCTAT | -0.232
130 | GTCTACAC | -0.0538
131 | CCTACTGC | -0.156
132 | CATCCCTA | 0.127
133 | CAGGACGA | 0.0828
134 | AGGTTCCC | -0.331
135 | CGCTCTAG | -0.253
136 | AAACTGCA | 0.00799
137 | CAGTATTA | 0.0608
138 | ACGAGAAT | 0.122
139 | CGCACTAG | -0.00831
140 | CTATCCCC | -0.228
141 | AATTGACC | 0.0411
142 | GGGACGCA | -0.0363
143 | AACATCCC | 0.0693
144 | AAGTAGGG | 0.114
145 | CAACCTAC | -0.114
146 | AGGGCCGG | -0.0394
147 | AACTGGGC | -0.182
148 | AACTTTTC | 0.0925
149 | AACGCGTA | 0.0449
150 | AGAACACG | 0.169

Row | Sequence | PBM E-score
151 | ACCTTGCC | -0.013
152 | ACGCCAAC | -0.055
153 | GGCCGAGA | 0.081
154 | TGCTGGAA | -0.0423
155 | CAACACAG | 0.0232
156 | GGCGTTGA | -0.102
157 | GTTACTGA | 0.171
158 | CGGTTGAG | -0.0793
159 | ATGTGCGG | -0.0574
160 | ACTATTCC | 0.0911
161 | GGTACTGA | -0.118
162 | GAGTCGCC | -0.162
163 | GGCACTAC | -0.284
164 | CGATTTAG | 0.138
165 | GCGCTAAA | -0.0257
166 | GTTCGTTA | 0.0345
167 | AAGTCGGT | -0.0333
168 | CCCTTGGC | -0.223
169 | GTCTGGGA | -0.0635
170 | AAATAGAA | -0.0849
171 | GGGTAACC | -0.155
172 | AAATATTC | 0.124
